Assay results reported in the supplement of paper PMC12632987.
Over roughly 4,500 sequences, “median log2 fold change of GCK-ALFA target abundance (FLAG IP / Myc IP barcode read proportion)” has its median near 0.078; the lowest 2% begin near -0.6. The list shows a part of the results.

B1: GBRAP_160_4437 (protein)
chain: MEKLEKAKKEIDEIIAEAIEMTKGESAEQRIVIVRVARGEILLELEELGLLTDKIDKVIDETFDAIIATIEANPDISDEELAAMLEEARDKIIEELDKEF
B2: GBRAP_14_3781 (protein)
chain: MEEIEKIIREEADRIIELLTEIVPEKAEEIRAIVEEVRDKTIARIRETGNAEEAADEGREELIARIRELLADEPEEVRAQAIAVVDVEFGQAILEIEELL
B3: GBRAP_128_3296 (protein)
chain: SAAELRARFEARVRALTALTPEALYEATLALIAEASALGLEAVEILVEVLEKHLPLFTPEQLEAIAAALAEAAKTATPEERALLADAENDALLEAEEKEE
B4: GBRAP_160_4434 (protein)
chain: SEKLEKAKKEIKEIAEEAAEMMKGESAEQRQVVVRVMEGEIILELEELGLLTEEIDKLIEEKAEEIIKYIKENPNISDEEFAKMLEAFVKEISEKLEKEF
B5: GBRAP_166_4884 (protein)
chain: MKEKLKEETKEFIKKLAEEAKGKSPEEVLELIIEVAEKIKEAKEAGLSEEDLLELIKYAVEEFSKIGWDPTLVAGIIINEADLSEELKEKVLDYIEELKK
B6: GBRAP_80_6858 (protein)
chain: AEEELEKALAELEKLLPEVAEDAKEIVELAKEMGVPYEDIAELMRALAELAKVDPELAAELIKELLKDLKEAKEEGDSENALALVRGYAGEALMEAEELE
B7: GBRAP_52_6026 (protein)
chain: MRAELEAAVREALALVRAGDLEAARALLEELVASLNDEELELLTEVVAALAAAAAPEDQEAVWTLTELAAEAMEEAGADEALADDLEARTAAALYEAEQR
B8: GBRAP_166_4936 (protein)
chain: SVEEALKRLKELIEEALEKMKTANAEEQTELWIEVGEALREAREAGVSLEELLEAVREFLKGVKELGLNIKIAAGIIINEADFTEEEIDKVWEIVDEILK
B9: GBRAP_128_3204 (protein)
chain: VSPEAVAALRALADEAAATKTDEALKAFADAVAAALKAGRLDLDSLEAIVSYLGSKLDEDDLVKAADALRAALADVGAEALATALGALGEVLMEKIEEEE
B10: GBRAP_128_3452 (protein)
chain: STEEKVKKAEELMNKIIESSDEEVPALAAELVDLIGESDDESAKAIAEVIIKKIPELSEEKLEILADVFVARRPELTPEKQEVLNEIAVAIGEEILEKEE
B11: GBRAP_80_6808 (protein)
chain: AEERLERALKEIEEIDPELAERVRRIVELARALGVSEETLAEFVEAVAKLAKIDVEKARELVEELEEDLLEEAARGDTARAEAVLRVYAGEFLLEVEELE
B12: GBRAP_128_3454 (protein)
chain: SVEEVREWTRATMEEVKEADLETARELFRELAARLTTLSLEEVEAAVEVIEEMLPELTPEKLDILAEVFREALPQFTPEKAALVADAASDALLLAEEKEE
B13: GBRAP_128_3356 (protein)
chain: LDEAFLAEVRALLDRMVASDVAETYALAKELLARMATASPEEREAAVELMHEHLPKLTAEKLDAVADAIDEMAPAFDPYTAELMAEVRVDALNEAEEKEE
B14: GBRAP_52_6066 (protein)
chain: SEARIEALAEAITAAVAAGDKEGALALIAEAIKELSLEEIKRMLELAAEKVAKLGEEQHELFVDVLDEAEDLLIEAGISEEDALLIVGSAEAALAKAVAA
B15: GBRAP_160_4856 (protein)
chain: SEKLEKALEIVREEREEALAAVEEAPASQRAAIAEAIALQAIDELEEEGLITEETEEKLLEVVDELRAELEANADASVEEWKAMVREAFERMEEIIKELS
B16: GBRAP_53_6406 (protein)
chain: KEEEIEKLKKEILELTEKATKAGPEERKKLVEEIGKKLKELKKAGASDEEITELAKEVAEKLKKAGADPSDHVTLAQAAADLGLEEATAVFAEAAVEDLE
B17: GBRAP_80_6846 (protein)
chain: AAARLAAELAALKALLPEVAEDAKEAVALARELGVPDADIADYLAALNELAKLDPELAAALLKELLADLREEKAEGDSENALAVVRGYTGEALMEAEELE
B18: GBRAP_48_5823 (protein)
chain: MEIDEELIEKLVEEKVEEMYELYEEAKKAGLSDEEILKLIRAELGDLALDLEEAGFTKAADWLRERENRDELAKKLYEFFKKGKIEEAKKYLFEELKKVE
B19: GBRAP_166_4932 (protein)
chain: SLEEIYEKAKKEVNELAEKAKTADEEELIELALEAEEILKEAKEKGLSKEELKEILLDALSLLKDNPEKALAFARYIEAAAGDDEELIDVIDEAKKEFLK

Each binder was assayed against GABARAP, O95166 (assay: median log2 fold change of GCK-ALFA target abundance (FLAG IP / Myc IP barcode read proportion) (log2 ratio); each designed protein is fused to an ALFA-tag nanobody in HEK293 cells to bring the named protein to FLAG-tagged glucokinase (GCK); Myc marks an untargeted standard; higher = target protein stabilised (more abundant)). Details: target protein: 3xFLAG-MCP-GCK-ALFA reporter; HEK293 landing pad (RPLP).
GABARAP, O95166, sequence (O95166 whole entry, the tested form may be a part): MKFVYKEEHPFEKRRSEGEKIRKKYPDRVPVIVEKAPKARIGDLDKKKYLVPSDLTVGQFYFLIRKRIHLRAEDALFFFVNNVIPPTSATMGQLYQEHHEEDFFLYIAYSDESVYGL
Procedure, shortened: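 Binders fused to an ALFA nanobody were recombined as a library into HEK293 landing-pad cells, which were induced with 2 μg mL^−1 doxycycline and then transfected to express a FLAG-tagged target and a Myc-tagged standard. After 48 h, circular RNA barcodes recovered by anti-FLAG and anti-Myc immunoprecipitation of lysates were reverse transcribed, amplified and sequenced. Each binder's target abundance is the median log2 ratio of FLAG to Myc barcode read proportions, from barcodes present at ≥10^−7 in both replicates, binders carrying ≥3 barcodes per replicate, a 10^−6 pseudocount and pooled replicates.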

Row | Binder | median log2 fold change
1 | B1 | -0.0852
2 | B2 | 0.184
3 | B3 | 0.161
4 | B4 | -0.0228
5 | B5 | 0.278
6 | B6 | -0.0923
7 | B7 | -0.261
8 | B8 | 0.335
9 | B9 | 0.241
10 | B10 | 0.274
11 | B11 | -0.444
12 | B12 | 0.24
13 | B13 | 0.111
14 | B14 | -0.486
15 | B15 | 0.124
16 | B16 | 0.254
17 | B17 | -0.698
18 | B18 | 0.173
19 | B19 | 0.187
